Over roughly 33,000 sequences, “E-score (-0.5 to 0.5)” has its median near -0.036; the highest 2% begin near 0.37. The list shows a part of the results.
molecular target: T1, Yer064c (UniProt P40041); assay: PBM E-score (8-mer binding enrichment) (E-score (-0.5 to 0.5)); higher = stronger / more preferred TF binding; most listed sequences are background and not binding sites; settings: protein concentration: 200 nM; construct: GST-full length
T1 sequence: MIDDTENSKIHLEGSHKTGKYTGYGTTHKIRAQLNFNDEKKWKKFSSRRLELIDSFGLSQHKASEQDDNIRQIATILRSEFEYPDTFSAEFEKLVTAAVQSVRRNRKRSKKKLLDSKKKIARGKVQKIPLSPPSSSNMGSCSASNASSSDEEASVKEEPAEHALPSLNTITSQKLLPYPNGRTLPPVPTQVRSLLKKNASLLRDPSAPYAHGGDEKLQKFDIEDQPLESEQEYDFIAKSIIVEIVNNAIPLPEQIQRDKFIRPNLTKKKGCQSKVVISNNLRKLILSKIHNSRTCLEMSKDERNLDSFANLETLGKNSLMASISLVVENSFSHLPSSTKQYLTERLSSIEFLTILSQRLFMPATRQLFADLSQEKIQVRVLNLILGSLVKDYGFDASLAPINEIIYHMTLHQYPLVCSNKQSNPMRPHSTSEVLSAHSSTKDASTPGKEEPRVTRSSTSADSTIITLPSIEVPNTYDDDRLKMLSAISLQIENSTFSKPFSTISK
Outline: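 Universal all-10-mer Agilent arrays, double-stranded by primer extension on fresh or once-stripped slides, were probed with about 100-200 nM GST-tagged yeast transcription factors made by PURExpress. Fluorescent anti-GST detected bound protein, and masliner normalised the scans. E-scores from the Universal PBM Analysis Suite were given to each ungapped eight-base word pooled with its reverse complement.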

Sequence	PBM E-score
GGCGCGTA	-0.299
GATATTCC	-0.217
TCCTAGGA	-0.336
ACTTTACC	0.126
TGGGATAA	-0.199
GAGTCGAA	0.359
ATGATTCC	0.456
AGATCAGG	-0.14
GTTCTATA	-0.0345
CTTGACCC	-0.164
CTTCATGC	-0.12
AGCGTCAC	-0.182
AATGACAT	-0.14
ACCTCAAG	0.00326
CATTGAAC	0.172
TAAAGTAA	0.049
AAGAGCAA	-0.0665
ACATCGGT	-0.0199
GTGCGCAC	-0.0104
CGCTAAAA	-0.0446
CCCATAGA	-0.0505
ACCGCCAG	-0.117
AAGTGACG	0.0587
GAAAGTAA	0.098
TCGTGACA	0.0154

Sequence	PBM E-score
CCCCCGGG	-0.228
AGCACGGG	-0.212
CATACCTA	-0.085
CAATAGAG	-0.0353
ACGTGCCG	-0.238
AGAAGGTC	-0.0538
GGAGCAGA	-0.176
ACCGAAGG	-0.0653
AGAAGTAT	0.0717
CGCGTAGA	0.0291
GCCGAGGA	-0.172
GAGGTGGA	-0.192
TACTAAGA	0.113
AAGACTGG	0.1
CGACAGAG	-0.0334
CGAGTCCG	0.272
TGGAGCCA	-0.0649
CAGGGGTC	-0.022
CCTCGTCG	-0.179
AGATAGGC	-0.147
ACTGCAGA	0.128
AACTCGGC	0.00137
GGGTCCAC	-0.116
CTAGTTAA	0.192
CTGCGGAC	-0.0565

Sequence	PBM E-score
ACCACAGC	-0.176
CTGGAAAA	0.0804
CGCTAGTC	0.29
GGCAGAAA	0.048
GTCCTCAC	0.0812
ATAGGCCC	-0.281
AAGCAATA	0.0273
AACGGCTA	-0.0485
CTCGTCTA	0.0806
AAGTACAC	-0.00131
CGCACATA	-0.0944
AGAGAGCT	-0.231
CCAGGCCG	0.0201
CAAAAGGA	-0.124
AGTTGGGG	-0.127
ATTCAAGA	0.135
GACGAACA	-0.0946
ATGGGATA	-0.116
GAAAACCA	-0.0862
ATCGCATA	0.00157
ATCCAAAT	0.0803
TGACTCAA	0.492
ATTCCCAA	-0.00741
CCCTCTTC	-0.303
GCGGGCCC	-0.194

Sequence	PBM E-score
AGATTCCG	-0.051
GGTCCTTA	0.0582
ACTGCTCA	0.132
ACATTAAC	0.128
AGCGTCCT	-0.187
CTCCTTAC	-0.231
ACGAGGAT	-0.194
AGTTCCGC	-0.0574
GTTTTTCA	0.0278
AGTTATAA	0.0907
ATGTCGTG	-0.101
CGTACAAG	0.0185
CGCATGTA	-0.125
CTAATTCA	0.0344
ACTGTTAC	-0.0683
AAGCTCGA	-0.0636
CAGTGAAA	0.0766
ATGTCTGA	0.139
ACAGCCGG	-0.0963
ACCAAGCA	-0.0624
CATATTAA	0.156
CCATTTTC	-0.0323
ACCGCCTA	-0.158
ACAGCACC	-0.172
AGTTATGC	0.0497

Sequence	PBM E-score
GGTTTGGA	0.00152
GTGAGGGA	-0.241
TAAGCACA	-0.0264
GTCCTCAA	0.159
AATTCTGA	0.153
CGGGTCCC	-0.251
ATGTGCTC	0.125
ATCCCATG	-0.105
CAACGTCG	-0.00846
GACGCGGA	-0.158
ATACACTC	0.144
CTCAAGGC	0.104
ATCCAGCA	-0.101
GGTCAGCA	-0.0951
GCGTATAC	0.00913
CCGCATAC	-0.117
ATGGAGTA	0.182
AGGAGAAC	-0.151
CGTTGTAC	-0.0197
ACACAAAG	0.05
CCGCACAC	-0.102
CAAATCAA	0.126
TCGAGCGA	0.0738
CAAGTATG	0.164
AGATCGGA	0.0279

Sequence	PBM E-score
CCTGATTA	0.344
ACAGTACA	0.0408
AATTGTCC	-0.072
CCCGGGCC	-0.273
GCCCTCGC	-0.288
GTGTATAA	0.0333
ATGTGGCG	-0.302
CACACTCA	0.171
AATAGGGT	-0.117
CCGACGCC	-0.0992
CCGACTGA	0.192
ATACACTA	0.0112
AGCCTCCC	-0.188
ATTCAACA	0.191
GAAGTCAA	0.357
AGCCTTTC	-0.263
AATCCTTA	-0.00608
CCTTTAAC	0.0238
CCCCCCCG	-0.054
ATTCGCGA	0.122
ATAGTCAT	0.489
AAAAGCCT	-0.127
CGAATCCG	0.0437
CACGCTCC	-0.244
CAGATATA	-0.0684

Sequence	PBM E-score
CTTGAGGC	-0.146
AACAGTAC	0.0768
ACGCTGGC	-0.197
ATTGTACA	0.0112
TTATGCAA	0.0691
AAGTACGC	-0.0952
GTGACAGA	-0.0932
ACTGAACG	0.0327
CGCCGGCA	-0.0982
ACGGGCCA	-0.376
CAAAGGCC	-0.278
CCCCTGCG	-0.348
GACTGTGC	0.19
CCGACCCA	-0.16
AAAAAAAC	-0.0134
ACCCCGTA	-0.00527
GAAACGAC	0.116
ACCTAACA	-0.0986
CAAGGACG	-0.103
ACTTGAGG	0.0112
GCTGCACA	-0.139
AGACAGTG	-0.0351

Reference: the supplement of paper PMC3334620
